The source of these data is the CheMixHub viscosity set.

± gives the uncertainty stated by the source. A number of entries come with more than one value. This list holds those alone. The source may hold further records. The records of an entry repeat one measurement (runs, samples, wells, individuals or studies). What stands in brackets tells the records apart. The letters are not those of the source and start again with each entry.

Broadly, the viscosity is the internal friction of a fluid under shear. A high value points to a thick fluid.

Consider `CC(=O)c1ccccc1`, for which the viscosity reads like this: (298.15 K, 101 kPa) 1.666 ± 0.08 mPa·s [study A] and 1.638 ± 0.063 mPa·s [study B] and 1.645 ± 0.043 mPa·s [study C] and 1.674 ± 0.026 mPa·s [study D]; (308.15 K, 101 kPa) 1.394 ± 0.043 mPa·s [study A] and 1.415 ± 0.067 mPa·s [study B] and 1.351 ± 0.012 mPa·s [study C] and 1.351 ± 0.019 mPa·s [study D].
For the compound `CCCCCCCCC`, the viscosity runs as follows: (298.15 K, 101.33 kPa) 0.655 ± 0.017 mPa·s [study A] and 0.65 ± 0.017 mPa·s [study B] and 0.66 ± 0.017 mPa·s, 0.66 ± 0.0089 mPa·s [study C] and 0.652 ± 0.005 mPa·s [study D] and 0.659 ± 0.011 mPa·s [study E] and 0.661 ± 0.005 mPa·s [study F] and 0.656 ± 0.012 mPa·s [study G]; (303.15 K, 101.33 kPa) 0.608 ± 0.016 mPa·s [study A] and 0.612 ± 0.005 mPa·s [study B] and 0.62 ± 0.011 mPa·s [study C] and 0.618 ± 0.004 mPa·s [study D] and 0.613 ± 0.012 mPa·s [study E]; (308.15 K, 101.33 kPa) 0.577 ± 0.016 mPa·s [study A] and 0.569 ± 0.015 mPa·s [study B] and 0.574 ± 0.004 mPa·s [study C] and 0.58 ± 0.011 mPa·s [study D] and 0.581 ± 0.004 mPa·s [study E] and 0.575 ± 0.011 mPa·s [study F].
